Laboratory results as given in PubChem BioAssay (NCATS).
Inconclusive results, whose numbers are uncertain, are shown with a selection of clear calls. For part of these data: No potency is given beside an inconclusive call; the fits are too rough. For part of these data: A note “side channel” means that the fit belongs to a control or component signal, not to the main read-out. Active and inactive are the calls of the source. Unless noted, calls follow the shape of the dose curve; as a rule, active = well fitted curve in the direction sought with a large enough effect; inconclusive = small, poorly fitted or top-dose-only effect, or another doubt; inactive = no such curve, though single readings can be large; an effect the other way counts as inactive or inconclusive.

Assays:
[1] = target: Estrogen receptor (Homo sapiens) (UniProt P03372); assay: qHTS assay for small molecule antagonists of estrogen receptor alpha signaling (AID 588513; active = well fitted curve in the direction sought with a large enough effect in the signal ratio, with a control signal flat, not every such curve was filed as active; inconclusive = small, poorly fitted or top-dose-only effect, or effect the other way, or a change in a side signal; inactive = no such curve, though single readings can be large or run the other way; the % refers to the signal ratio; also: % is scaled to controls: 0 for no effect and ±100 for the full control effect); conditions: ER-alpha-UAS-bla HEK293, beta-lactamase ratio, antagonist mode; activity, negative = inhibition: at 76.9 µM (top of the series) unless noted
Sequence of UniProt P03372 (P03372 whole entry, looked up): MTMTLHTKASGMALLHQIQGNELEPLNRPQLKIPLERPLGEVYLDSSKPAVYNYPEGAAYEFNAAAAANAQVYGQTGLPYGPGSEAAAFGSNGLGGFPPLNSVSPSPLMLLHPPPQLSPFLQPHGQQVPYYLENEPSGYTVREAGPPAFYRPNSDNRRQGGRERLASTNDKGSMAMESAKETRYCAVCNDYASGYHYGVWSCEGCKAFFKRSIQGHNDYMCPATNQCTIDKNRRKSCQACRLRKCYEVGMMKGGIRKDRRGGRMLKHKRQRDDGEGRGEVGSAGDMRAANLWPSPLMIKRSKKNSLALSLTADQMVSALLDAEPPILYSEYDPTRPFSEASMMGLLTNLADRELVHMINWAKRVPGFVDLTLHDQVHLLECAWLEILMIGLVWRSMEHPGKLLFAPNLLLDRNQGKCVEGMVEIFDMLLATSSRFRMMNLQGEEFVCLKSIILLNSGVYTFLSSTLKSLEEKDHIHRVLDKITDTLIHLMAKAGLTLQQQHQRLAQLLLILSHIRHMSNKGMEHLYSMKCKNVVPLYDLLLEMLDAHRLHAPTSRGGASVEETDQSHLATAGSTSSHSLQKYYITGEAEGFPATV
Outline: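 ER-alpha-UAS-bla GripTite HEK 293 cells in medium with 2% charcoal/dextran-treated FBS were preincubated 4 h at 37 C, dosed with compound (1:2 titration), stimulated with 0.5nM 17-beta-estradiol for 18 h, then read by CCF4 beta-lactamase fluorescence.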

[2] = target: Glucocorticoid receptor (Homo sapiens) (UniProt P04150); assay: qHTS assay for small molecule agonists of glucocorticoid receptor signaling (AID 588532; active = well fitted curve in the direction sought with a large enough effect in the signal ratio, with a control signal flat; inconclusive = small, poorly fitted or top-dose-only effect, or a change in a side signal; inactive = no such curve, though single readings can be large or run the other way; the % refers to the signal ratio;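 also: 100% = dexamethasone at 0.1 µM and 0% = DMSO only wells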); conditions: HeLa MMTV-bla, beta-lactamase ratio, agonist, 18 h; activation: stronger effect = higher value, percent of dexamethasone control, DMSO zero
Outline: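 Stimulation of a glucocorticoid response element-driven beta-lactamase gene was measured in HeLa cells. Responses were scaled between DMSO basal and 0.1 uM dexamethasone, then fitted for half-maximal stimulation.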

[3] = qHTS assay for small molecule agonists of the antioxidant response element (ARE) signaling pathway (AID 651741; active = well fitted activation curve with a large enough effect in the signal ratio; inconclusive = small, poorly fitted or top-dose-only effect, or effect the other way, or a change in a side signal; the % refers to the signal ratio; also: potency is read from the fitted curve at half-maximal effect); conditions: HepG2 ARE-bla reporter, beta-lactamase FRET ratio, 16 h; activation: at 96 µM (top of the series) unless noted
Outline: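 ARE-bla HepG2 cells (beta-lactamase reporter under ARE control) were plated at 2,000 cells/well, preincubated 5 h at 37 C/5% CO2, then treated with DMSO-dissolved compounds for 16 h at 37 C; LiveBLAzer B/G FRET substrate added, fluorescence read after 2 h at room temperature.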

[4] = qHTS assay for small molecule agonists of the antioxidant response element (ARE) signaling pathway measured by Nrf2-dependant transcriptional activity (AID 720636; active = well fitted curve in the direction sought with a large enough effect in the repeat runs; inconclusive = weak or mixed curves; inactive = no such curve, though single readings can be large; an effect the other way counts as inactive or inconclusive;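 also: HepG2 cells with an ARE-driven luciferase reporter; % of control where 0% means no effect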)
Outline: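 Cells: ARE-luc HepG2 with Nrf2-responsive luciferase. Medium contained 1% dialyzed FBS. Compound exposure lasted 16 hr at 37 C and 5% CO2, followed by ONE-Glo luciferase detection.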

[5] = target: Peroxisome proliferator-activated receptor gamma (Homo sapiens) (UniProt P37231); assay: qHTS assay for small molecule antagonists of peroxisome proliferator-activated receptor gamma signaling (AID 588537; active = well fitted inhibition curve with a large enough effect in the signal ratio, with a control signal flat, not every such curve was filed as active; inconclusive = small, poorly fitted or top-dose-only effect, or effect the other way, or a change in a side signal; the % refers to the signal ratio;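 also: reporter cells co-stimulated with 50 nM rosiglitazone agonist during compound treatment; % of control where 0% means no effect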); conditions: HEK293 PPARg-UAS-bla, beta-lactamase ratio, antagonist mode; activity, negative = inhibition: at 76.8 µM (top of the series)
Outline: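 PPAR-gamma-UAS-bla HEK293 cells (3000/well, 1% charcoal/dextran-stripped FBS) were preincubated 6-6.5 h at 37 C, given titrated compounds, then stimulated with 50 nM rosiglitazone for 16 h. Beta-lactamase activity was read with CCF4 dye; IC50 came from Hill fits.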

[6] = target: Thyroid hormone receptor beta (Homo sapiens) (UniProt P10828); assay: qHTS assay for small molecule antagonists of thyroid hormone receptor beta signaling (AID 588547; active = well fitted inhibition curve with a large enough effect in the signal ratio, with a control signal flat, not every such curve was filed as active; inconclusive = small, poorly fitted or top-dose-only effect, or effect the other way, or a change in a side signal; the % refers to the signal ratio; also: potency is read from the fitted curve at half-maximal effect;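 as to activity change % (negative = inhibition): cells stimulated with 0.4 nM T3 agonist during compound exposure; % is scaled to controls: 0 for no effect and ±100 for the full control effect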); conditions: TR-UAS-bla HEK293, beta-lactamase ratio, antagonist mode, 18 h
Sequence of UniProt P10828 (P10828 whole entry, looked up): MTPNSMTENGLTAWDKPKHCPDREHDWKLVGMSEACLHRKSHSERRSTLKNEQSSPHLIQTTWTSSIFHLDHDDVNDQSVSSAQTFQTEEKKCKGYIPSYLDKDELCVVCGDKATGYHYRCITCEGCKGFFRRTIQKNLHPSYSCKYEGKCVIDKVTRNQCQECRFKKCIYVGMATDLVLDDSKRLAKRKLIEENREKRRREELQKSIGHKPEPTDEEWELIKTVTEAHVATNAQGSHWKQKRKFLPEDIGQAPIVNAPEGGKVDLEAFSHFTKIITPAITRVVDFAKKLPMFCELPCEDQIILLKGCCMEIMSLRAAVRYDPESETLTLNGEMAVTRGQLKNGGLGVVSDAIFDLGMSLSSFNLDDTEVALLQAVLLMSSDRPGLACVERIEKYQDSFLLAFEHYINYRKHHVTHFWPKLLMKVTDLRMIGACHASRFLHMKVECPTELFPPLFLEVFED
Outline: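 TR-UAS-bla GripTite HEK293 cells in 2% charcoal/dextran FBS medium were preincubated 4 h at 37 C, given compound (0.59 nM to 92 uM) plus 0.4 nM T3 (final) for 18 h, then CCF4 for 2 h at RT; Hill fit gave IC50.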

[7] = target: Cytochrome P450 3A4 (Homo sapiens) (UniProt P08684); assay: qHTS Assay for Inhibitors and Substrates of Cytochrome P450 3A4 (AID 884); also: % is scaled to controls: 0 for no effect and ±100 for the full control effect; nearly all actives have a fitted effect of over 50% in size
Sequence of UniProt P08684 (P08684 whole entry, looked up): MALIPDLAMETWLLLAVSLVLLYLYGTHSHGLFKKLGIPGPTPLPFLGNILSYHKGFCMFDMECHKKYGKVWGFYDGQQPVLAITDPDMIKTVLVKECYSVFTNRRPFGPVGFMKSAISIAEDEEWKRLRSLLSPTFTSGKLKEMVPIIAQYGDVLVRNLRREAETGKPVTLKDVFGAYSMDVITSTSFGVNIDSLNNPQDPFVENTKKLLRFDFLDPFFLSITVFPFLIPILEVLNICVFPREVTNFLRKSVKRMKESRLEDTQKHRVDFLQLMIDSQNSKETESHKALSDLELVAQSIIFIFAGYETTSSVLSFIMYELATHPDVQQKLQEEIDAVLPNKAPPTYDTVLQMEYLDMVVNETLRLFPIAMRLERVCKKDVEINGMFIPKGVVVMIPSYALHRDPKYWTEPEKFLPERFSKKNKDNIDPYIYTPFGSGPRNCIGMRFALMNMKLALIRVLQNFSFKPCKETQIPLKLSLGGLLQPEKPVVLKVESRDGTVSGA
Outline: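 20 nM human CYP3A4 with 25 uM Luciferin-PPXE (at KM) in 200 mM KPO4, preincubated 10 min with compound; NADPH regeneration started a 60 min RT reaction. Luciferin detected by luminescence, normalized to 57 uM ketoconazole as full inhibition.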

[8] = MultiTox-Fluor Cytotoxicity Assay - LYMP1-002 - Dead Cells (AID 960); conditions: LYMP1-002 lymphoblastoid cells, dead-cell protease fluorescence; cytotoxicity (dead cells): at 46.1 µM (top of the series);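 also: 0% = DMSO and 100% = tetraoctylammonium bromide; nearly all actives have a fitted effect of over 60% in size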
Outline: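 Human lymphoblastoid cells (LYMP1-002), 2500/well in complete medium, were exposed to compounds for 16 hr at 37 C. Dead-cell protease activity was read as bis-AAF-R110 fluorescence (Ex/Em 485/520), normalized to DMSO and 15 uM tetraoctylammonium bromide; AC50 from Hill fits.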

[9] = Cell Viability - LYMP2-003 (AID 965);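 also: cells exposed to compounds for 24 h before reading; 0% = DMSO only and full effect = 92 µM tetraoctylammonium bromide; nearly all actives have a fitted effect of over 50% in size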
Outline: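 Human lymphoblastoid cells (2500/well) were pre-incubated 5 hr at 37 C, then exposed to compounds over a concentration range for 24 hr at 37 C. Intracellular ATP was read by CellTiter-Glo luminescence; AC50 came from Hill-equation fits.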

[10] = Cell Viability - LYMP2-017 (AID 972); also: % is scaled to controls: 0 for no effect and ±100 for the full control effect; nearly all actives have a fitted effect of over 55% in size
Outline: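 Human lymphoblastoid cells (2500/well) were seeded in complete medium, held 5 hr at 37 C, then exposed to compounds for 24 hr at 37 C. Intracellular ATP was read by CellTiter-Glo luminescence after 30 min at room temperature, with AC50 values from Hill-equation fits.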

[11] = Cell Viability - LYMP2-023 (AID 975);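 also: cellular ATP measured by luciferase luminescence as viability proxy; plate controls were DMSO only for no effect and 92 µM tetraoctylammonium bromide control for full effect; nearly all actives have a fitted effect of over 55% in size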
Outline: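 Human lymphoblastoid cells (2500/well) were preincubated 5 hr at 37 C, then exposed to compounds for 24 hr at 37 C in complete medium. Cellular ATP was read by CellTiter-Glo luminescence, and AC50 came from Hill-equation fits.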

[12] = target: Bile acid receptor (Homo sapiens) (UniProt Q96RI1); assay: qHTS assay for small molecule antagonists of farnesoid X receptor signaling (AID 588526; calls by dose curve; also: % is scaled to controls: 0 for no effect and ±100 for the full control effect); conditions: HEK293T FXR-UAS-bla, beta-lactamase ratio, antagonist mode; activity change, negative = inhibition: at 76.7 µM (top of the series)
Outline: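 Concentration-response titrations were fitted to the Hill equation for half-maximal inhibition and maximal response, with data normalised to 50 uM chenodeoxycholic acid and DMSO control wells. Cells: FXR-UAS-bla HEK293T, dialyzed FBS.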

[13] = target: Peroxisome proliferator-activated receptor gamma (Homo sapiens) (UniProt P37231); assay: qHTS assay for small molecule agonists of peroxisome proliferator-activated receptor gamma signaling (AID 588536; active = well fitted curve in the direction sought with a large enough effect in the signal ratio, with a control signal flat, not every such curve was filed as active; inconclusive = small, poorly fitted or top-dose-only effect, or effect the other way, or a change in a side signal; inactive = no such curve, though single readings can be large or run the other way; the % refers to the signal ratio; also: potency is read from the fitted curve at half-maximal effect;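 as to activation: 0% = DMSO basal wells and 100% = rosiglitazone at 2 µM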); conditions: HEK293 PPARg-UAS-bla, beta-lactamase ratio, 16 h; activation: at 76.7 µM (top of the series), percent of rosiglitazone response, DMSO as zero unless noted
Outline: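 PPAR-gamma-UAS-bla HEK293 cells in medium with 1% charcoal/dextran-treated FBS were exposed to compounds for 16 h at 37 C. Beta-lactamase activity was read with CCF4 substrate (405 nm excitation, 460/530 nm emission).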

[14] = target: Retinoic acid receptor RXR-alpha (Homo sapiens) (UniProt P19793); assay: qHTS assay for small molecule agonists of retinoid X receptor alpha signaling (AID 588544; calls by dose curve;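 also: 0% = DMSO basal wells and 100% = reference agonist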); conditions: HEK293T RXRa-UAS-bla, beta-lactamase reporter, 18 h; activation: at 76.7 µM (top of the series) unless noted
Sequence of UniProt P19793 (P19793 whole entry, looked up): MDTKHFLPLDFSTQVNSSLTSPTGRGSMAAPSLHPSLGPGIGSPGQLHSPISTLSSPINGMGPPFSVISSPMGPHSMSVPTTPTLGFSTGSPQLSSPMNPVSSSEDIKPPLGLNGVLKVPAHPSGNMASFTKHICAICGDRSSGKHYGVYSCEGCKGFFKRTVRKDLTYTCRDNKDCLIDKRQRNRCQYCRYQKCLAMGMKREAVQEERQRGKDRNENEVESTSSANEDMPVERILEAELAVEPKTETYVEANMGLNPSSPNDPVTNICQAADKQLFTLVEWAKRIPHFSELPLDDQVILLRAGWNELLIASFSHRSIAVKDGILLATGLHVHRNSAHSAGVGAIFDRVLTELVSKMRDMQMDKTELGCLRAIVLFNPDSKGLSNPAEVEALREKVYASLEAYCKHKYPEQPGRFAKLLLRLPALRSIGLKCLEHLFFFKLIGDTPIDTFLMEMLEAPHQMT

[15] = qHTS assay to identify small molecules that stimulate interleukin-8 (IL-8) secretion (AID 651758; active = well fitted activation curve with a large enough effect in the signal ratio; inconclusive = small, poorly fitted or top-dose-only effect, or effect the other way, or a change in a side signal; the % refers to the signal ratio; also: 0% is about no effect); conditions: HTRF ratio (665/615); activation: at 92.2 µM (top of the series)
Outline: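 THP-1, 2000 cells/well; cpd 16 h, 37 C; add cryptate + XL665 anti-IL-8 Abs; RT 1-3 h; TR-FRET read.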

[16] = target: Peroxisome proliferator-activated receptor delta (Homo sapiens) (UniProt Q03181); assay: qHTS assay for small molecule agonists of peroxisome proliferator-activated receptor delta signaling (AID 588534; calls by dose curve;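 also: 0% = DMSO basal wells and 100% = positive control agonist at 10 µM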); conditions: HEK293T PPARdelta-UAS-bla, beta-lactamase ratio, 18 h; activation: at 76.7 µM (top of the series)
Sequence of UniProt Q03181 (Q03181 whole entry, looked up): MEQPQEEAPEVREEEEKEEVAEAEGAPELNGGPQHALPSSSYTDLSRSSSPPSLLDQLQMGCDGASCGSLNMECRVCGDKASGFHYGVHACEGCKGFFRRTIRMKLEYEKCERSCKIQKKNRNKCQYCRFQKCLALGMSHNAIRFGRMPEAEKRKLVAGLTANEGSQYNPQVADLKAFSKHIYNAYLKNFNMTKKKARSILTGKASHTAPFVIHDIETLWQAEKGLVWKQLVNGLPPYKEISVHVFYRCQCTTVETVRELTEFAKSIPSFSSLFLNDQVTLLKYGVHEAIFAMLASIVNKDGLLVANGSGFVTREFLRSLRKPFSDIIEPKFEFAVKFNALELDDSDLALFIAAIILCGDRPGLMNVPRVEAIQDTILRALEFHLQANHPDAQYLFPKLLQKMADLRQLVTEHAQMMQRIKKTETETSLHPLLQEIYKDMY
Outline: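 Cell-based beta-lactamase reporter assay run in agonist mode: cells seeded and incubated 5 hrs at 37 C, compounds added and incubated 18 hrs at 37 C. CCF4 dye fluorescence read after 2 hrs at RT; EC50 and efficacy from Hill fits.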

[17] = target: Glucocorticoid receptor (Homo sapiens) (UniProt P04150); assay: qHTS assay for small molecule antagonists of glucocorticoid receptor signaling (AID 588533; active = well fitted inhibition curve with a large enough effect in the signal ratio, with a control signal flat, not every such curve was filed as active; inconclusive = small, poorly fitted or top-dose-only effect, or effect the other way, or a change in a side signal; the % refers to the signal ratio;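 also: cells stimulated with 2 nM dexamethasone as agonist; % is scaled to controls: 0 for no effect and ±100 for the full control effect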); conditions: HeLa MMTV-bla, GRE beta-lactamase ratio, antagonist mode, 18 h; activity change, negative = inhibition: at 76.8 µM (top of the series) unless noted
[18] = target: Peroxisome proliferator-activated receptor delta (Homo sapiens) (UniProt Q03181); assay: qHTS assay for small molecule antagonists of peroxisome proliferator-activated receptor delta signaling (AID 588535; active = well fitted inhibition curve with a large enough effect in the signal ratio, with a control signal flat, not every such curve was filed as active; inconclusive = small, poorly fitted or top-dose-only effect, or effect the other way, or a change in a side signal; inactive = no such curve, though single readings can be large or run the other way; the % refers to the signal ratio); conditions: HEK293T PPARd-UAS-bla, beta-lactamase FRET ratio, 18 h; activity change, negative = inhibition: at 76.7 µM (top of the series) unless noted
Outline: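 GeneBLAzer PPAR-delta-UAS-bla HEK293T cells in medium with 2% charcoal/dextran FBS were preincubated 5 hrs at 37 C, then given compounds, incubated 18 hrs at 37 C, and read by CCF4 beta-lactamase fluorescence; IC50 from Hill fits.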

[19] = target: Thyroid hormone receptor beta (Homo sapiens) (UniProt P10828); assay: qHTS assay for small molecule agonists of thyroid hormone receptor beta signaling (AID 588545; calls by dose curve; also: potency is read from the fitted curve at half-maximal effect); conditions: TR-UAS-bla GripTite HEK 293, beta-lactamase ratio, agonist mode, 18 h; activation: at 76.7 µM, percent of T3 response, DMSO as zero
Outline: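 Beta-lactamase reporter activity under TR response element control is measured in HEK 293 cells after 18 hrs compound exposure. Signal is ratiometric CCF4 fluorescence, 460/530 nm.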

[20] = qHTS assay for small molecule activators of the p53 signaling pathway (AID 651743; active = well fitted activation curve with a large enough effect in the signal ratio, not every such curve was filed as active; inconclusive = small, poorly fitted or top-dose-only effect, or a change in a side signal; the % refers to the signal ratio; also: % of control where 0% means no effect); conditions: HCT-116 p53RE-bla, beta-lactamase FRET ratio, 16 h; activation: stronger effect = higher value
Outline: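 p53RE-bla HCT-116 cells with a stably integrated beta-lactamase reporter under p53 response elements were plated, rested 5 hours at 37 C/5% CO2, then exposed to compounds in DMSO for 16 hours at 37 C. LiveBLAzer B/G FRET substrate was read after 2 hours at room temperature.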
Tags tell the direction and shape of the fitted curve or compound fluorescence and quenching.

Nc1c(Cl)c(F)nc(OCC(=O)O)c1Cl
activity, negative = inhibition [1]: inconclusive: 9.72% | activation [2]: inactive: -4.31% | Potency [3]: inconclusive [activator, partial curve, poor fit] | Potency [4]: inactive

C=C(C)C(=O)OCC(CC)CCCC (stereo not drawn)
activity, negative = inhibition [1]: inconclusive: -18.1% | activation [2]: inactive: -12.2% | activity, negative = inhibition [5]: inconclusive: 0.5% | activity change % (negative = inhibition) [6]: inactive: 10.1%

Oc1cccc(Cl)c1
Potency [7]: inactive | Potency [8]: inactive | Potency [9]: inactive | Potency [10]: inactive | Potency [11]: inactive | Potency [1]: inactive | activity change, negative = inhibition [12]: inconclusive: -22.9% | Potency [13]: inactive | Potency [14]: inactive | Potency [3]: inconclusive [activator, partial curve] | activation [15]: inconclusive: -2.87%

Cc1cc(Cl)ccc1OC(C)C(=O)O (stereo not drawn)
Potency [1]: inactive | Potency [16]: inactive | Potency [13]: inconclusive [activator, partial curve]

Cn1c(-c2ccccc2)cc(-c2ccccc2)[n+]1C
activity, negative = inhibition [1]: inconclusive: -32.8% | activity change, negative = inhibition [17]: inconclusive: 17.6% | activity change, negative = inhibition [18]: inconclusive: -8.28% | Potency [19]: inconclusive [side channel, rising, single point] | activity change % (negative = inhibition) [6]: inconclusive: 8.7% | activation [20]: inconclusive: 17.9%

C=C(C)CN(CC)c1c([N+](=O)[O-])cc(C(F)(F)F)cc1[N+](=O)[O-]
Potency [1]: inactive | activity change, negative = inhibition [17]: inconclusive: 9.84% | Potency [5]: inactive | Potency [6]: inconclusive [side channel, falling, full curve, poor fit] | Potency [3]: inconclusive [activator, single point]
